{"source": "patent US6710090B2", "about": "“Inhibitory or blocking agents of molecular generating and/or inducing functions” (priority 1994, dated 2004)", "target": "T1, insulin (Homo sapiens, UniProt P01308)", "T1 construct": "Effect on Physiological Function of Vasopressin and Insulin as Peptides; purchased Novo Ltd", "test": "Physiological function of insulin treated with Yoshixol, blood sugar", "assay_type": "in vivo", "details": "rabbit, insulin 5 units/Kg treated with Yoshixol 4 μl; untreated insulin maximal fall 45 mg/dl", "description": "Each vasopressin and insulin has a physiological effect such as a rise of blood pressure and a fall of sugar level in blood respectively. An effect of Yoshixol on these physiological functions was investigated and compared by injection of each hormone without or with treatment with Yoshixol in rabbit in vivo. When vasopressin (100 ng/Kg, Sigma Co. Saint Louis, Mo., USA) without treatment with Yoshixol was injected intravenously, blood pressure increased by 15-25 mmHg so that this increased level was maintained for about 25 minutes. But, vasopressin (100 ng/Kg) treated with Yoshixol (4 μl) caused a increase in blood pressure of only about 5 mmHg (referred FIG. 6).", "data": [{"compound": "C=C1CC(C)(C)C=CC1=O", "note": "[Yoshixol, 4,4-dimethyl-6-methylene-2-cyclohexen-1-one]", "values": [{"measurement": "change in blood sugar level", "result": 12, "unit": "mg/dL"}]}]}
